PubChem BioAssay AID1963576 (National Center for Advancing Translational Sciences (NCATS), 2024)
The campaign covered roughly 46,000 compounds. About 60 (0.1%) were called active. Not shown: some 3% with an inconclusive outcome. The call rests on the fitted dose curve; in most records, active means well fitted inhibition curve with a large enough effect; inconclusive means small, poorly fitted or top-dose-only effect; inactive means no such curve, though single readings can be large or run the other way. The list shows a part of the results.

Test: Primary qHTS assay for Inhibitors of ovarian cancer metastasis using an organotypic tumor microenvironment (TME) model. Further: nearly all actives have a fitted effect of over 65% in size.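 On activity change, negative = inhibition: plate controls were DMSO wells for no effect and tomatine positive control wells for full effect.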
Details: SKOV3ip1-GFP adhesion/invasion on 3D omental model, fluorescence; series mostly up to 45.8 µM; activity change, negative = inhibition: at the top concentration
Method in brief: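 Adhesion/invasion was scored as fixed GFP-labeled SKOV3ip1 cell counts (488/509 nm), normalized to DMSO and tomatine controls. Cancer cells in serum-free medium, with four compound doses (0.36-46 umol/L), sat 2 hr at RT then 16 hr at 37 C on a 48 hr fibroblast/mesothelial/ECM culture.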

outcome, inactive:
Cc1ccccc1CNC(=O)CCSCc1cnn(-c2ccccc2)c1-n1cccc1, CCOC(=O)c1ccc(NC(=O)c2ccc(-c3cccc(Cl)c3C)o2)cc1, Cc1nc2nc(C)c(CCC(=O)NCCc3ccccc3)c(C)n2n1, CCC(Sc1nc2cc3c(cc2c(=O)n1CCCC(=O)NCc1ccc2c(c1)OCO2)OCO3)C(=O)NCCCOC (stereo unspecified), CCC(=O)N1c2ccc(S(=O)(=O)N3CCCCCC3)cc2CC1C (stereo unspecified), CCC(CC)c1nn2cc(-c3ccccc3)nc2s1, Cn1cc(S(=O)(=O)N2CCCCC2)cc1C(=O)NCc1ccc(Cl)cc1, Cc1cc(S(=O)(=O)Nc2ccc3[nH]c(=O)sc3c2)ccc1F, COc1ccc(-c2cn3c(n2)sc2cc(C(=O)N4CCCCC4)ccc23)cc1, CCCN(C(=O)c1cn(CC(C)C)c(=O)c2cc(OC)c(OC)cc12)c1cccc(C)c1, CCCCOC(=O)c1ccc(NC(=O)/C(C#N)=C/c2ccc(C)o2)cc1, CCOc1ccc(S(=O)(=O)N2CCN(c3ccc(C)cc3C)CC2)c2ccccc12, O=C1COc2ccc(-c3cc(-c4ccc(F)cc4)c4c(n3)-c3ccccc3OC4)cc2N1, Cc1ccc(C)c(C(=O)CSc2nc3cc(C(=O)NC4CCCC4)ccc3c(=O)n2CC2CCCO2)c1 (stereo unspecified), COCc1cc(C)n(CC(=O)Nc2cccc(C(C)=O)c2)c(=O)c1C#N, Cc1nnc(NC(=O)CSCc2cc(=O)c3ccc(C)c(C)c3[nH]2)s1, O=C(NCc1ccccc1Cl)C1CCN(c2ncnc3c2nc2n3CCCCC2)CC1, COc1ccc(-c2csc(-c3c(N)c(C(=O)c4ccccc4)n4ccccc34)n2)cc1, CCn1cc2nc(SCc3cccc(F)c3)n(CCc3ccccc3)c(=O)c2n1

Activity change, negative = inhibition, inactive:
COc1ccc(C2c3c(-c4ccc(F)cc4)n[nH]c3C(=O)N2c2ccccc2)cc1OC (stereo unspecified) -2.29%, CCOc1ccc(CCNC(=O)c2cc3c(-c4ccccc4F)nn(C)c3s2)cc1OCC -18.5%, COC(=O)c1cc(C)nc2c1c(=O)nc(SCc1c(C)cc(C)cc1C)n2C1CC1 -6.88%, CCc1ccc(NC(=O)CSc2nc3ccccc3c(=O)n2CCC(=O)NC2CCCCC2)cc1 -13.3%, CC(C)Oc1cccc(C(=O)Nc2ccc3oc(-c4ccccc4)nc3c2)c1 -12.6%, Cc1ccc2nc(CN3CCN(S(=O)(=O)c4ccccc4)CC3)oc2c1 6.91%, O=C(Cn1cc(S(=O)(=O)Cc2ccccc2Cl)c2ccccc21)Nc1cccc(C(F)(F)F)c1 -1.69%, Cc1ccc(S(=O)(=O)N(CC(=O)Nc2c(C)cccc2C)c2cccc(Cl)c2)cc1 -2.69%, COC(=O)c1cc2oc3ccccc3c2n1CC(=O)Nc1ccc(N(C)C)cc1 -15.1%, Nc1c(-c2nc(-c3ccccc3Cl)no2)nnn1-c1ccccc1F 0.467%, Cc1ccc(NC(=O)COc2ccc(-c3nn(C)c(=O)c4ccccc34)cc2)c(C)c1 -28.4%, Cc1ccc(N2CCN(S(=O)(=O)c3cc(Br)cc4c3N(C(=O)C3CC3)CC4)CC2C)cc1 (stereo unspecified) 19.4%, CCOc1cc(-c2nnc(SCC(=O)NCCCOC)nc2-c2ccc(OC)c(OCC)c2)ccc1OC 1.41%, COc1ccc(NC(=O)C(NS(=O)(=O)c2cccc3nsnc23)c2ccccc2)cc1 (stereo unspecified) 7.39%, CCC(=O)Nc1nnc(S(=O)(=O)N2CCCCCC2)s1 4.06%, COc1ccc(N2CC(NC(=O)Cc3cccs3)CC2=O)cc1OC (stereo unspecified) -7.5%, CCS(=O)(=O)N1CC(=O)N(c2ccc(C)c(C)c2)C(C)(C(=O)NC2CCCCCC2)C1 (stereo unspecified) 9.25%, C[C@H]1c2cccc(O)c2C(O)=C2C(=O)[C@]3(O)C(O)=C(C(N)=O)C(=O)[C@@H](N(C)C)[C@@H]3[C@@H](O)[C@@H]21 -1.11%, Cc1ccc(NC(=O)COCc2cc(-c3cccs3)on2)cc1Cl -9.21%, CCCCNS(=O)(=O)c1ccc2nc(-c3cccnc3)cc(C(=O)NCCCOCC)c2c1 -16.9%, CCc1ccccc1N1C(=O)N(C)c2ccccc2S1(=O)=O -18%, COC(=O)c1ccc(NC(=O)CN(c2cccc(C(F)(F)F)c2)S(C)(=O)=O)cc1 12.6%, Cc1cccc(-n2c(SCC(=O)Nc3ccccc3C)nc3c(oc4ccccc43)c2=O)c1 0.384%, Cc1[nH]c2ccccc2c1C(=O)C(=O)NC1CC(=O)N(c2ccccc2)C1 (stereo unspecified) -0.536%, CCOc1ccccc1CNC(=O)CCn1cccn1 4.61%, CCCN(CCC)CCCNC(=O)C1CCN(S(=O)(=O)c2cccc3nsnc23)CC1 5.8%, COc1cccc(CSc2nc(-c3ccccc3OC)nc3c2Cc2c(CO)cnc(C)c2O3)c1 -5.68%, Cc1ccccc1C(C(=O)NC1CCCC1)N(C(=O)Cn1cnc2ccccc21)c1cccc(F)c1 (stereo unspecified) -9.74%, CSc1nn(Cc2ccc(F)cc2)c(N)c1S(=O)(=O)c1ccc(Cl)cc1 7.64%, CCN(C(=O)c1ccc2c(=O)n3c(nc2c1)CCCCC3)c1cc(C)ccc1C -4.31%, Cc1ccc(-c2nc3cc(NC(=O)c4cc(Br)ccc4Cl)ccc3o2)cc1 4.3%, CCOc1ccccc1C(=O)N1CCCCC1CCN1CCOCC1 (stereo unspecified) 22.8%, CCC(=O)N1CCc2cc(S(=O)(=O)NC(C(=O)NCCc3ccc(C)cc3)C(C)C)ccc21 (stereo unspecified) -8.44%, CCCOc1cccc(C2c3c(oc4cc(C)c(C)cc4c3=O)C(=O)N2CCCN2CCOCC2)c1 (stereo unspecified) 7.77%, CSc1cccc(NC(=O)CN(C)S(=O)(=O)c2ccc3c(c2)CCCN3C(C)=O)c1 -3.01%, CC(C)c1nn2c(=O)cc(COC(=O)c3ccccc3Cl)nc2s1 6.56%, CCOc1cc2[nH]c(=O)n(CCCCCC(=O)NC(C)CC)c(=O)c2cc1OCC (stereo unspecified) 0.615%, COc1ccc(N2CCN(Cc3nc(-c4ccc(C)cc4)no3)CC2)cc1 1.35%, CC1CCN(S(=O)(=O)c2cn(CC(=O)Nc3ccc(F)cc3)c(=O)c3ccccc23)CC1 -4.62%, Cc1cc(C)n2c(Nc3cccc(C(F)(F)F)c3)c(-c3ccsc3)nc2n1 -2.52%, COc1ccc2nc3cc(Cl)ccc3c(Nc3cc(CN4CCCC4)c(O)c(CN4CCCC4)c3)c2n1 1.66%, CCC(Cc1ccccc1)NC(=O)Cn1ncc2c3ccccc3n(Cc3ccc(F)cc3)c2c1=O (stereo unspecified) -22.3%
